# Measurements published in the supplement of paper PMC4967469.
# By IC50 is meant the dose at which the fit gives 50% viability; where the fit passes the top or lowest dose, that dose stands as a limit. For AUC the same curve is integrated over the 256-fold range of doses and scaled to a fraction; the more sensitive the line, the further below 1. For some assays here: Where the top dose is marked as inferred, it is not printed in the source and was worked back from the curve model. For some assays here: Where an entry number is given, a second screen of the drug exists; the two often differ.
# How the values were obtained:
# Assay in all cases: Viability of human cancer cell lines after 72 h of drug (GDSC screen)
# LFM-A13 = compound: C/C(O)=C(\C#N)C(=O)Nc1cc(Br)ccc1Br [LFM-A13]; conditions: top dose 16 µM; top dose inferred
# Description: (§1)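 Human cancer cell lines in 384-well plates, medium with 10% serum, drug for 72 h over a 256-fold dose range (nine 2-fold or five 4-fold steps up to the top dose). Adherent lines were fixed and stained with the nucleic acid dye Syto60, suspension lines read with resazurin; signal relative to control wells, capped at 0 and 100%. One two-parameter sigmoid per drug and line, fitted in a mixed model over all curves with the slope shared within a line.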
# Nilotinib = compound: Cc1cn(-c2cc(NC(=O)c3ccc(C)c(Nc4nccc(-c5cccnc5)n4)c3)cc(C(F)(F)F)c2)cn1 [Nilotinib]; conditions: top dose 2 µM
# Description: as §1
# T0901317 = compound: O=S(=O)(c1ccccc1)N(CC(F)(F)F)c1ccc(C(O)(C(F)(F)F)C(F)(F)F)cc1 [T0901317]; conditions: top dose 10.24 µM; top dose inferred
# Description: as §1
# Bicalutamide = compound: CC(O)(CS(=O)(=O)c1ccc(F)cc1)C(=O)Nc1ccc(C#N)c(C(F)(F)F)c1 [Bicalutamide]; conditions: top dose inferred
# Description: as §1
# KIN001-270 = compound: Cc1ccc(Nc2cc(-c3cccc(N4C(=O)c5ccccc5C4=O)c3)ncn2)cc1NS(C)(=O)=O [KIN001-270]; conditions: top dose 20 µM; top dose inferred
# Description: as §1
# AUY922 = compound: CCNC(=O)c1noc(-c2cc(C(C)C)c(O)cc2O)c1-c1ccc(CN2CCOCC2)cc1 [AUY922]; conditions: top dose 0.256 µM; top dose inferred
# Description: as §1
# TW-37 = compound: CC(C)c1ccccc1Cc1cc(C(=O)Nc2ccc(S(=O)(=O)c3ccccc3C(C)(C)C)cc2)c(O)c(O)c1O [TW-37]; conditions: top dose 5 µM
# Description: as §1
# MP470 = compound: S=C(NCc1ccc2c(c1)OCO2)N1CCN(c2ncnc3c2oc2ccccc23)CC1 [MP470]; conditions: top dose 20 µM; top dose inferred
# Description: as §1
# Gemcitabine = compound: Nc1ccn([C@@H]2O[C@H](CO)[C@@H](O)C2(F)F)c(=O)n1 [Gemcitabine]; conditions: top dose 1.024 µM
# Description: as §1
# [1] = top dose 1.024 µM, screen: GDSC drug entry 150
# [2] = top dose 10 µM, screen: GDSC drug entry 1502
Cell Line,AUC (LFM-A13),IC50 (LFM-A13) [nM],AUC (Nilotinib),IC50 (Nilotinib) [nM],AUC (T0901317),IC50 (T0901317) [nM],AUC (Bicalutamide; [1]),IC50 (Bicalutamide; [1]) [nM],AUC (Bicalutamide; [2]),IC50 (Bicalutamide; [2]) [nM],AUC (KIN001-270),IC50 (KIN001-270) [nM],AUC (AUY922),IC50 (AUY922) [nM],AUC (TW-37),IC50 (TW-37) [nM],AUC (MP470),IC50 (MP470) [nM],AUC (Gemcitabine),IC50 (Gemcitabine) [nM]
"JHH-6 (liver, adherent)",0.962,> 16000,0.987,> 2000,0.955,> 10200,0.987,> 1020,0.969,> 10000,0.971,> 20000,0.625,35.6,0.604,604,0.977,> 20000,0.61,129
"JHH-7 (liver, adherent)",0.989,> 16000,0.981,> 2000,0.94,> 10200,0.989,> 1020,0.96,> 10000,0.973,> 20000,0.561,23.2,0.607,601,0.762,6760,0.268,14.7
"JHU-022 (head and neck, adherent)",0.948,> 16000,0.95,> 2000,0.982,> 10200,0.972,> 1020,0.955,> 10000,0.982,> 20000,0.68,58.6,0.588,580,0.979,> 20000,0.768,487
"JURL-MK1 (chronic myeloid leukaemia, suspension)",0.977,> 16000,0.039,< 7.81,0.965,> 10200,0.984,> 1020,0.964,> 10000,0.971,> 20000,0.553,22.3,0.538,396,0.905,> 20000,0.215,9.37
"K2 (melanoma, adherent)",0.976,> 16000,0.96,> 2000,0.978,> 10200,0.98,> 1020,0.975,> 10000,0.982,> 20000,0.77,127,0.666,1040,0.868,> 20000,0.673,225
"KMH-2 (thyroid, adherent)",0.979,> 16000,0.962,> 2000,0.99,> 10200,0.99,> 1020,0.989,> 10000,0.987,> 20000,0.685,49.3,0.532,377,0.79,7850,0.304,19.3
"KMRC-1 (kidney, adherent)",0.97,> 16000,0.987,> 2000,0.974,> 10200,0.987,> 1020,–,–,0.904,> 20000,0.724,72.5,0.506,324,0.975,> 20000,0.928,> 1020
"KON (head and neck, adherent)",0.97,> 16000,0.987,> 2000,0.977,> 10200,0.986,> 1020,0.968,> 10000,0.98,> 20000,0.408,9,0.447,225,0.953,> 20000,0.288,16.4
"KU-19-19 (bladder, adherent)",0.918,> 16000,0.987,> 2000,0.964,> 10200,0.961,> 1020,–,–,0.987,> 20000,0.795,119,0.465,252,0.937,> 20000,0.962,> 1020
"KYM-1 (rhabdomyosarcoma, adherent)",0.991,> 16000,0.981,> 2000,0.983,> 10200,0.99,> 1020,0.967,> 10000,0.99,> 20000,0.777,87.9,0.634,691,0.926,> 20000,0.024,< 4
"KYSE-50 (oesophagus, adherent)",0.97,> 16000,0.99,> 2000,0.959,> 10200,0.99,> 1020,0.989,> 10000,0.987,> 20000,0.504,16.4,0.457,242,0.949,> 20000,0.361,27.5
"KYSE-70 (oesophagus, adherent)",0.976,> 16000,0.986,> 2000,0.979,> 10200,0.985,> 1020,0.979,> 10000,0.986,> 20000,0.544,21.4,0.83,3560,0.945,> 20000,0.711,269
